Reference: PubChem BioAssay AID1476 (National Center for Advancing Translational Sciences (NCATS), 2009)
Values joined by “and” are separate entries in the source; they are usually repeats but may differ in a detail not shown here. Equal entries are not always repeated. About 4,500 (2.2%) of roughly 200,000 compounds were called active. This list was built around the results that the source calls inconclusive (neither active nor inactive); the mix of calls is not that of the screen. Calls follow the shape of the dose curve; as a rule, active = well fitted inhibition curve with a large enough effect; inconclusive = small, poorly fitted or top-dose-only effect, or effect the other way; inactive = flat fitted curve, though single readings scatter. Potencies of inconclusive entries are doubtful fits and often do not repeat. The source holds several records for some structures; these can differ, active in one and inactive in another.

Biological target: Cruzipain (Trypanosoma cruzi) (UniProt P25779)
Assay: qHTS Assay for Promiscuous and Specific Inhibitors of Cruzain (without detergent); also: nearly all actives have a fitted effect of over 40% in size;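 as to max response, negative = inhibition: plate controls were enzyme without inhibitor for no effect and buffer without enzyme for full effect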
Conditions: purified cruzain, Z-FR-AMC fluorescence, no detergent
Outline: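 Purified cruzain at 1.5 nM, pre-incubated 15 min with compound at room temperature in 100 mM sodium acetate pH 5.5, 5 mM DTT, 0.00005% Triton X-100. Reaction started with 2 uM Z-FR-AMC; AMC fluorescence increase over 60 s gives rate.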
Potency is read from the fitted curve at half-maximal effect; tags tell the direction and shape of the fitted curve.

UniProt P25779, sequence (P25779 whole entry, looked up): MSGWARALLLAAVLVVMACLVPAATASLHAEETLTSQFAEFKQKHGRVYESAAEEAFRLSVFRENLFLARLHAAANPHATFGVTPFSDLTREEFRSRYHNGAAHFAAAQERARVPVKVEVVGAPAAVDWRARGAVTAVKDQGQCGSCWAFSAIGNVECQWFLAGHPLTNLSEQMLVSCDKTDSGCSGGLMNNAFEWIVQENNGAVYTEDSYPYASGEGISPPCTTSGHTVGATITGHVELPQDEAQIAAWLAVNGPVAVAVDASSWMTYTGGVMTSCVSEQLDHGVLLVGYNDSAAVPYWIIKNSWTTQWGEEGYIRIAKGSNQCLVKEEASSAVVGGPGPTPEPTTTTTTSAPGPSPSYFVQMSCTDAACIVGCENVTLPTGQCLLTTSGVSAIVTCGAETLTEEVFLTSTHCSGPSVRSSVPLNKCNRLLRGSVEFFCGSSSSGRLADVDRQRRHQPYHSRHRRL

| SMILES | max response, negative = inhibition | Potency |
| --- | --- | --- |
| O=C(Cn1cc(S(=O)(=O)N2CCCC2)c(S(=O)(=O)N2CCCC2)c1)Nc1ccc(F)cc1 | inactive: 4.21% |  |
| CN(Cc1ccco1)c1ncnc2ccc(-c3ccccc3C#N)cc12 | inactive: -7.53% |  |
| CC(=O)N1CCc2c(sc3c2c(=O)n(-c2ccccc2Cl)c(=O)n3Cc2cccc(C)c2)C1 |  | inconclusive: 25.1 µM [activator, partial curve] |
| O=C(NCc1ccccc1)N[C@@H](Cc1ccccc1)C(=O)O | inactive: -12.8% |  |
| CCC(CO)NC(=O)[C@@H]1C=C2c3cccc4[nH]cc(c34)C[C@H]2N(C)C1 (stereo partly drawn) |  | inconclusive: 15.8 µM [activator, single point] |
| O=C(Nc1cccc(Cl)c1)Nc1cccc(Cl)c1 | inactive: 1.82% |  |
| CCN(C(=O)CSc1nc2ccccc2n1CC(=O)N(C)C1CCCCC1)c1ccccc1 | inactive: 8.23% |  |
| COc1ccccc1CNC(=O)c1cn(C)c(=O)c2cc(OC)c(OC)cc12 |  | inconclusive: 31.6 µM [activator, single point] |
| CCN(CC)S(=O)(=O)c1ccc2c(c1)N(CC(=O)NCCCN1CCN(c3ccc(OC)cc3)CC1)C(=O)CO2 | inactive: 2.95% |  |
| Oc1oc(-c2ccccc2)nc1C=Nc1cccc2ccccc12 |  | inconclusive: 39.8 µM [inhibitor, single point] |
| CCC(C)(C)n1nnnc1CN(Cc1cccs1)Cc1cc2cc(OC)ccc2[nH]c1=O |  | inconclusive: 39.8 µM [activator, single point] |
| COC(=O)/C(=C/c1ccco1)NC(=O)c1ccccc1 | inactive: 6.69% |  |
| CC(=O)Nc1cccc(C(=O)OC(C(=O)c2ccc(C)cc2)c2ccccc2)c1 (stereo not drawn) |  | inconclusive: 39.8 µM [activator, single point] |
| COc1ccc(Cc2nnc(SCC(=O)NCCc3ccccc3)o2)cc1 | inactive: 6.33% |  |
| CN(C)C(=O)CCc1nc(-c2ccc(C(C)(C)C)cc2)no1 |  | inconclusive: 25.1 µM [activator, partial curve] |
| C=CCn1c(-c2cccs2)nc2nc3ccccc3nc21 |  | inconclusive: 12.6 µM [activator, partial curve] |
| CCOC(=O)c1cnc2c(ccc3ccccc32)c1Nc1cccc(Cl)c1 | inactive: -3.9% |  |
| CC(=O)N1CCc2cc(Br)cc(S(=O)(=O)N3CCN(c4ccccn4)CC3)c21 |  | inconclusive: 39.8 µM [activator, single point] |
| Cc1cccc(C)c1NS(=O)(=O)c1ccc2c(c1)[C@H]1C=CC[C@H]1[C@@H](c1ccc(Cl)cc1)N2 |  | inconclusive: 15.8 µM [inhibitor, partial curve] |
| CSCC[C@H](NC(=O)CC(C)(C)C)c1nc2ccccc2[nH]1 | inactive: -5.93% |  |
| CCn1c(O)c(C=Nc2cc(Cl)ccc2Cl)c(=O)n(CC)c1=O |  | inconclusive: 39.8 µM [inhibitor, single point] |
| COc1cccc(-c2cc(C(=O)Nc3ccc(Br)c(C)c3)[nH]n2)c1 |  | active: 12.6 µM |
| Clc1ccc(C2=Nn3c(nnc3-c3cccs3)SC2)cc1 |  | active: 7.94 µM |

| SMILES | max response, negative = inhibition | Potency |
| --- | --- | --- |
| CC(C)(Sc1ccc(CCN(CCCCC2CCCCC2)C(=O)NC2CCCCC2)cc1)C(=O)O |  | inconclusive: 20 µM [activator, single point] and inconclusive: 15.8 µM [activator, partial curve] |
| CCOc1ccc(C2C(C(=O)Nc3ccccc3OC)=C(C)Nc3c(C(=O)Nc4cccc(C)c4)cnn32)cc1 (stereo not drawn) |  | inconclusive: 25.1 µM [inhibitor, partial curve, poor fit] |
| CCC(C)(C)C1CCc2c(sc(NC(=O)c3cccs3)c2C(N)=O)C1 (stereo not drawn) |  | inconclusive: 31.6 µM [inhibitor, single point] |
| COc1ccc(-c2cc(C(F)(F)F)nc(NCc3ccc(Cl)cc3)n2)cc1 |  | inconclusive: 25.1 µM [inhibitor, single point] |
| CCN1CCN(c2ccc(NC(=O)Cc3ccccc3)cc2)CC1 | inactive: 4.43% |  |
| CCOc1ccc(Nc2sc(C(=O)c3ccc4c(c3)OCO4)c(N)c2S(=O)(=O)c2ccc(C)cc2)cc1 |  | active: 3.16 µM |
| CCCN(CC(=O)Nc1ccc(Cl)cc1Cl)C(=O)/C=C/c1cccc([N+](=O)[O-])c1 |  | inconclusive: 39.8 µM [inhibitor, single point] |
| CCC1CN(C(=O)Nc2cccc(OC)c2)c2ccccc2O1 (stereo not drawn) | inactive: -25.1% |  |
| Cc1ccccc1Cn1c2ccccc2c2cnn(CC(=O)NCCCc3ccccc3)c(=O)c21 | inactive: 0.735% |  |
| COc1cc(-c2noc(-c3ccc(N(C)C)c([N+](=O)[O-])c3)n2)cc(OC)c1OC |  | active: 25.1 µM |
| COc1ccc(CNC(=O)c2cc3c(-c4ccccc4F)nn(C)c3s2)cc1 | inactive: -1.44% |  |
| CCOC(=O)c1sc(NC(=O)/C=C/c2ccccc2)nc1C |  | active: 25.1 µM |
| COc1ccc(NC(=O)Cn2c(=O)n(CC(=O)NCCc3ccccc3)c(=O)c3ccccc32)cc1 |  | inconclusive: 25.1 µM [inhibitor, single point] |
| CCN(CC)c1ccc(/C=N/Nc2nc3ccccc3[nH]2)cc1 |  | inconclusive: 39.8 µM [inhibitor, single point] |
| O=C(Nc1ccc(Br)cc1F)C(NS(=O)(=O)c1cccc2nsnc12)c1ccccc1 (stereo not drawn) |  | inconclusive: 31.6 µM [inhibitor, single point] |
| CC1=C(/C=C/C(C)=C/C=C/C(C)=C\C(=O)O)C(C)(C)CCC1 |  | inconclusive: 39.8 µM [activator, single point] |
| Cc1nn2c(N)c(C#N)cnc2c1-c1ccc(Cl)cc1 |  | active: 25.1 µM |
| CCC(C(=O)NC1CCCC1)N(C(=O)Cn1nnc(-c2ccc(OC)c(OC)c2)n1)C1CCCCC1 (stereo not drawn) |  | inconclusive: 39.8 µM [activator, single point] |
| CCOC(=O)C1CCCN(C(=O)c2cc3c(-c4cccc(OC)c4)nn(C)c3s2)C1 (stereo not drawn) |  | inconclusive: 31.6 µM [activator, single point] |
| Clc1ccc2nc(Nc3ccccc3Cl)nc(-c3ccccc3)c2c1 | inactive: 11% |  |
| CCc1ccc(NS(=O)(=O)c2ccc3[nH]cc(C(=O)NCc4ccc(C)cc4)c(=O)c3c2)cc1 |  | inconclusive: 39.8 µM [inhibitor, single point] |
| CCc1nn(CC(=O)N(CC)Cc2ccccc2)c(=O)c2cc3occc3n12 | inactive: -4.94% |  |
| Cc1ccc(CNC(=O)c2oc3ccc(S(=O)(=O)N4CCC5(CC4)OCCO5)cc3c2C)cc1 |  | inconclusive: 25.1 µM [activator, single point] |

| SMILES | max response, negative = inhibition | Potency |
| --- | --- | --- |
| COc1ccc(-c2cn3c(n2)sc2cc(C(=O)NCCCN4CCCCC4)ccc23)cc1 |  | inconclusive: 39.8 µM [activator, single point] |
| COc1ccc(NC(=O)CN2C(=O)CCc3cc(S(=O)(=O)N4CCOCC4)ccc32)c(OC)c1 | inactive: 11% |  |
| Cc1nn(C)c2c1c(C(F)(F)F)cc(=O)n2C(C)C(=O)NCCC(C)C (stereo not drawn) |  | inconclusive: 20 µM [activator, partial curve] |
| Cc1ccc(C)c(NC(=O)Cn2nnc(C(=O)NCc3cccs3)c2N)c1 |  | inconclusive: 31.6 µM [inhibitor, single point] |
| CCC(Sc1ncccc1C(=O)Oc1ccccc1Cl)C(=O)Nc1ccccc1OC (stereo not drawn) |  | inconclusive: 31.6 µM [inhibitor, single point] |
| COc1ccc(OCCCn2cc(/C=C3/C(=N)N4C=C(C)SC4=NC3=O)c3ccccc32)cc1 |  | active: 25.1 µM |
| Oc1c(C=C2N=c3ccccc3=N2)sc(=S)n1C1CCCCC1 | inactive: -23.2% | active: 12.6 µM |
| N#CCC(=N)N1CCN(c2ccc(Cl)cc2)CC1 |  | active: 12.6 µM |
| CNC(=O)[C@H]1O[C@H](n2cnc3c(NCc4cccc(I)c4)nc(Cl)nc32)[C@@H](O)[C@@H]1O |  | inconclusive: 39.8 µM [activator, single point] |
| COc1ccc(NC(=O)Cn2nc(-c3ccccc3)c3cnc4ccc(C)cc4c32)cc1 | inactive: -9.97% |  |
| CCOC(=O)N1CCN(C(c2ccc(C(C)C)cc2)c2sc3nc(C)nn3c2O)CC1 (stereo not drawn) |  | inconclusive: 25.1 µM [activator, partial curve] |
| Cc1ccc(N2C(=O)CS(=O)(=O)C23C(=O)N(Cc2ccccc2C)c2ccccc23)cc1Cl (stereo not drawn) |  | active: 2 µM |
| CCOC(=O)N1CCN(C(=O)CN(Cc2ccccc2)S(=O)(=O)c2ccc(OC)c(C)c2)CC1 |  | inconclusive: 31.6 µM [activator, partial curve] |
| COc1ccc(CNC(=O)CCc2c(C)c3ccc(OC)c(C)c3oc2=O)cc1OC | inactive: 2.33% |  |
| Cc1cccc(C)c1NC(=O)CSc1ccc([N+](=O)[O-])cn1 | inactive: -1.59% |  |
| O=C(CSc1nc2c(c(=O)n1-c1ccc(Br)cc1)SCC2)NCc1ccco1 |  | inconclusive: 31.6 µM [inhibitor, single point] |
| O=C(CCc1nc(-c2ccccc2)c(-c2ccccc2)o1)OCc1ccc(Cl)cc1 |  | inconclusive: 31.6 µM [inhibitor, single point] |
| COCCOC(=O)C1=C(C)NC(C)=C(C(=O)OC(C)C)[C@H]1c1cccc([N+](=O)[O-])c1 | inactive: 23.2% |  |
| O=C(Nc1ccc(Cl)cc1)N1CCC(CN2CCCCCC2)CC1 |  | inconclusive: 31.6 µM [inhibitor, single point] |
| COc1ccc(CNC(=O)CCc2c(C)nc3ncnn3c2C)cc1 | inactive: 10.1% |  |
| Cc1ccc(NC(=O)c2nnn(Cc3cccc(C(F)(F)F)c3)c2N)c(C)c1 |  | inconclusive: 39.8 µM [inhibitor, single point] |
